Experimental data published in the RNAGym collection of RNA variant scans (doi:10.7554/elife.90254).
Read counts are not given, so values of variants with three or more changes are uncertain.

B1: LINE1-mini (parent)
chain: GGCAGAGCUCAACACAGCGUGGCAAAGUGGCUGUGGCUAGACUGCC

Variants of: B1
Assay: self-cleavage, relative activity (ratio to wild type); higher = more cleavage; in vitro, sequencing; the parent is a self-cleaving ribozyme

| Variant | self-cleavage |
| --- | --- |
| G2U C8A A11U G27C | 0.02 |
| G2C U20A C23U C37A G40U | 0.04 |
| G2U A16G A26C C37A | 0.18 |
| G2C G40C C46G | 0.17 |
| G2U A6U U20C | 0.05 |
| G2C G36A C42G | 0.03 |
| G2U A4C G19A C45A | 0.07 |
| G2U A6G G29U U32G G44C | 0.01 |
| G2U A12G G22U | 0.03 |
| G2C U9C C23A G27A A41C | 0.03 |
| G2C U32A C37A | 0.03 |
| G2C G27U U38C | 0.03 |
| G2U A11C G30U U34G G35A | 0.01 |
| G2U A11U C37U | 0.01 |
| G2U A6G U9C A12U G21A C46G | 0.01 |
| G2U A4C A6C C13A | 0.04 |
| G2C U34G A39C | 0.02 |
| G2C G30C U43C | 0.09 |
| G2U C8A A11G C13A C45A | 0 |
| G2U A4C G5A G22C U32G G33U G36A | 0.02 |
| G2U A16U A25C C46G | 0.01 |

| Variant | self-cleavage |
| --- | --- |
| G2U A12U C23G A24C | 0.1 |
| G2U C3G G19A | 0.2 |
| G2C U9A C13A A24C G44U | 0.09 |
| G2U C3U A25G U28G | 0.03 |
| G2C G36U A41C | 0.12 |
| G2U C3G C10U G27A G29U | 0.13 |
| G2U C8A C13G C23A A24U | 0.01 |
| G2U A11C G27U C37A | 0.01 |
| G2U C8A C10A G29A | 0.01 |
| G2U A6U A14C G22U | 0.02 |
| G2U A4C C8A G17A | 0.09 |
| G2C U34C C45U | 0.06 |
| G2U A14G G33U A41C | 0.01 |
| G2U A12U U32G C45G | 0.01 |
| G2U C3G G7U | 0.4 |
| G2U A6G C8G U38C G40C | 0.02 |
| G2U A16U G22A | 0.01 |
| G2U A4G C13U G27U G29C G35A | 0.05 |
| G2C U9C U34C | 0.1 |
| G2U C8U G19A G21A C45G | 0.07 |
| G2U A4G G21U A24U G36C | 0.21 |

| Variant | self-cleavage |
| --- | --- |
| G2C U9A G21A C42A | 0.47 |
| G2U A16G A25U | 0.12 |
| G2U A4U A11U C18G | 0 |
| G2U A4U G17C U20A C37A U43A | 0.01 |
| G2U A24C A26U G44U | 0.03 |
| G2U A4U G33U | 0.04 |
| G2U A39G C42G | 0.04 |
| G2U C3G G5A U9C G30A U32G G33U | 0.03 |
| G2C G40A G44A | 0.02 |
| G2U A16U G19A C45G | 0.03 |
| G2U A26G U34C C37G | 0.04 |
| G2U A11G G21U | 0 |
| G2U A14G G19A G44A | 0.02 |
| G2U A6G C13A G44A | 0 |
| G2U A14G G27A U38A | 0.03 |
| G2C G29C G36A | 0.02 |
| G2U A11G G17U G19A G29U | 0.02 |
| G2U A26C G29A G35A | 0.05 |
| G2U A12C U20A | 0 |
| G2U A25U C31U | 0.05 |
| G2U A14U U38A A39G C46G | 0.01 |

| Variant | self-cleavage |
| --- | --- |
| G2U A4U G17U U28C G35A | 0.04 |
| G2C G29A C37G | 0.02 |
| G2C U20C A24G C31A | 0.07 |
| G2U A24G G30C U32C C37U | 0.01 |
| G2U C8A U20C G21U | 0 |
| G2U A12U G36U | 0.24 |
| G2C U20G A24U U34A | 0.02 |
| G2C U9G A16C G17C U38G | 0.45 |
| G2U C3G A4U G44U | 0.4 |
| G2C U20G G22A U28G C37U C45G | 0.03 |
| G2C U9C G17A C31U | 0.01 |
| G2C U9A C18U G22U | 0.05 |
| G2U A4G C8G U28G | 0.03 |
| G2U A16U C37U C45U | 0.07 |
| G2U A4G A6U C31A G35C C42U | 0.04 |
| G2U A12G U28C | 0 |
| G2U A41U G44A | 0.21 |
| G2U A14C C31A | 0.01 |
| G2U A12U G17A G21A | 0.02 |
| G2U C8G G36U | 0.05 |
